Source: article PMC5290234, “Influence of Escherichia coli chaperone DnaK on protein immunogenicity” (Immunology, 2016)

Biological target: T1, recombinant E. coli DnaK (E. coli, UniProt P0A6Y8)
T1 construct: Chaperone protein DnaK (HSP70) of Escherichia coli, recombinant; Commercial recombinant protein; also called 70 000 MW E. coli chaperone protein DnaK; HSP DnaK; source: bought: Enzo Life Sciences
Assay: co-sedimentation; 0.5 ul DnaK (1 mg/ml) added to 500 ul heat-aggregated mouse albumin (60 degrees 24 hr at 5 mg/ml, diluted to 1 mg/ml, PBS), ultracentrifugation at 802 000 g for 30 min; pellet and supernatant blotted with anti-DnaK
Details: both partners purified

B1: mouse albumin (natural protein)
chain: not shown
notes: Serum albumin, mouse; Used as monomer or as heat aggregate (5 mg/ml, 60 degrees, 24 hr, about 50 nm, about 50% loss of secondary structure); also called mouse serum albumin; source: bought: MP Biomedicals (lyophilized)
binding result: binds
